Several values for one entry are separate records, joined by “and”; a condition that tells them apart may be missing. Equal values may be shown once. Over roughly 5,300 compounds, “PER2::LUC luminescence relative to vehicle control” has its median near 0.96; the highest 2% begin near 1.3. Some of the results follow.
Test system: mPer2Luc MEF
Assay: PER2::LUC luminescence relative to vehicle control (fold of vehicle); higher = higher PER2::LUC reporter signal
Details: 10 µM
Summary of the method: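 The reported values are PER2::LUC luminescence as fold of vehicle control in mouse embryonic fibroblasts carrying the mPer2Luc reporter. Cells were seeded at ~3000 per well in 384-well plates in DMEM with 10% FBS at 37 °C and 5% CO2, and compounds were added at 10 μM 48 h later. ONE-Glo luminescence was read 24 h and 30 h after treatment.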

SMILES | PER2::LUC luminescence (time after treatment 24 h) | PER2::LUC luminescence (time after treatment 30 h)
CC(C)(C)Cn1c(N)nc2ccc(-c3[nH]c(C(C)(C)C)nc3-c3ccc(F)cc3)nc21 | 0.886 | 1.09
CCCN[C@H]1CCc2nc(N)sc2C1 | 1.05 and 0.983 and 0.909 | 0.913 and 0.95 and 0.782
CCOC(=O)c1ccc(OC(=O)CCCCCNC(=N)N)cc1 | 0.768 | 0.911
COc1cccc(-c2ccc(NC(=O)C3=C(C(=O)O)CCC3)c(F)c2)c1 | 1.43 | 1.75
Cc1nc2ccccc2n1Cc1ccc(Cl)cc1 | 0.361 | 0.307
CC(C)C[C@H](NC(=O)[C@@H](COC(C)(C)C)NC(=O)[C@H](Cc1ccc(O)cc1)NC(=O)[C@H](CO)NC(=O)[C@H](Cc1c[nH]c2ccccc12)NC(=O)[C@H](Cc1cnc[nH]1)NC(=O)[C@@H]1CCC(=O)N1)C(=O)N[C@@H](CCCNC(=N)N)C(=O)N1CCC[C@H]1C(=O)NNC(N)=O | 1.03 | 1.03
Clc1cccc(-c2nnnn2Cc2cccnc2)c1Cl | 1.04 | 1.05
CNC(=O)c1cc2c(cn1)[nH]c1ccccc12 | 0.997 and 0.875 | 0.958 and 0.981
Cc1cc(=O)oc2cc(O)ccc12 | 1.01 and 1.08 and 0.784 | 0.94 and 0.807 and 0.997
CCCCCCCCCCCCCCCCCCOP(=O)([O-])OC1CC[N+](C)(C)CC1 | 0.845 | 1.06
O=C(Nc1ccc(OC(F)(F)F)cc1)c1sccc1NCc1ccnc2ccccc12 | 1.76 | 1.99
COc1cc(/C=C/C(=O)N2CCN(CC(=O)N3CCCC3)CC2)cc(OC)c1OC | 0.866 | 0.974
CC(COc1ccccc1)N(CCCl)Cc1ccccc1 (stereo not drawn) | 1.18 | 1.1
Nc1ncn([C@@H]2O[C@H](CO)[C@@H](O)[C@H]2O)c(=O)n1 | 0.654 and 0.464 and 1.01 | 1.26 and 0.687 and 1.13
COc1ccc(CN(CCN(C)C)c2ccccn2)cc1 | 0.875 and 0.866 | 0.972 and 0.699
CCCNC(C)C(=O)Nc1ccccc1C (stereo not drawn) | 1.17 and 1.01 and 0.968 | 0.959 and 0.999 and 0.918
CNc1ncnc2c1ncn2[C@H]1C[C@H](OP(=O)(O)O)[C@@H](COP(=O)(O)O)O1 | 0.938 | 0.718
CCSC(=N)N | 1.02 | 1.19
Cc1c(-c2ccnn2C)cc(C(=O)NCc2ccc(S(C)(=O)=O)cn2)c(=O)n1-c1cccc(C(F)(F)F)c1 | 0.918 | 0.966
CC(=O)c1ccc(S(=O)(=O)NC(=O)NC2CCCCC2)cc1 | 1.02 | 0.908
CC(C)(C)c1[nH]cnc1/C=c1\[nH]c(=O)/c(=C/c2ccccc2)[nH]c1=O | 0.369 | 0.395
Cc1scc2c1N(C(=O)CN1CCN(C)CC1)c1ccccc1NC2=O | 1.05 and 0.898 | 1.04 and 1.1
COc1cc(C(=O)O)cc(OC)c1O | 1.06 | 1.08
Cc1cc2c(cc1Cl)N(C(=O)Nc1ccc(Oc3cccnc3C)nc1)CC2 | 0.924 | 1.03
O=C(N[C@@H](Cc1ccccc1)C(=O)CCl)OCc1ccccc1 | 1.06 | 1.11

SMILES | PER2::LUC luminescence (time after treatment 24 h) | PER2::LUC luminescence (time after treatment 30 h)
CNC(=O)CN(CCN(CCN(CC(=O)O)CC(=O)NC)CC(=O)O)CC(=O)O.O.[Gd] | 1.08 | 1.05
CN(C)CCC(c1ccc(Cl)cc1)c1ccccn1 (single isomer, unassigned; (+)) | 0.963 | 0.902
O=C1C[C@@H](c2ccc(O)c(O)c2)Oc2cc(O[C@@H]3O[C@H](CO)[C@@H](O)[C@H](O)[C@H]3O)cc(O)c21 | 1.05 | 1.01
Cn1c(=O)cc(N2CCC[C@@H](N)C2)n(Cc2cc(F)ccc2C#N)c1=O | 1.07 and 0.956 | 1.03 and 1 and 0.915
Cn1c(=O)c2nc[nH]c2n(C)c1=O | 1.07 | 0.99
CC(COc1ccc(/C=C/c2ccccc2)cc1)[N+](C)(C)C (stereo not drawn) | 0.936 | 1.02
CC[C@]1(O)C[C@@H]2CN(CCc3c([nH]c4ccccc34)[C@@](C(=O)OC)(c3cc4c(cc3OC)N(C)[C@H]3[C@@](O)(C(N)=O)[C@H](O)[C@]5(CC)C=CCN6CC[C@]43[C@@H]65)C2)C1 | 0.657 | 0.34
COc1cc2cc3c4cc(OC)c(OC)cc4cc[n+]3c(C)c2cc1OC | 1.1 | 1.08
c1ccc(C2CN3CCSC3=N2)cc1 (stereo not drawn) | 0.842 and 0.284 | 0.734 and 0.346
C=C1c2cccc(O)c2C(=O)C2=C(O)[C@]3(O)C(=O)C(C(N)=O)=C(O)[C@@H](N(C)C)[C@@H]3[C@@H](O)[C@H]12 | 1.06 and 1.19 | 0.955 and 1.02
COc1ccc2nc(/C=C/c3cccc([N+](=O)[O-])c3)n(-c3ccc(C(=O)O)cc3)c(=O)c2c1 | 1.05 | 1.01
NCCCC[C@H](N[C@@H](CCc1ccccc1)C(=O)O)C(=O)N1CCC[C@H]1C(=O)O | 0.954 and 0.75 | 0.879 and 0.869
NC1(C(=O)O)CCCC1 | 0.961 | 0.889
Cc1cc2nc(NCCCO)n(CC(=O)c3cc(C(C)(C)C)c(O)c(C(C)(C)C)c3)c2cc1C | 1.06 | 0.919
c1ccc2c(c1)CCC[C@H]2Nc1nc2ccccc2[nH]1 | 1.01 | 0.874
O=C(Nc1cccc2c(=O)cc(-c3nnn[nH]3)oc12)c1ccc(OCCCCc2ccccc2)cc1 | 0.99 | 1.04
CCO[C@H]1CN(C2CCC(O)(c3ccc4c(c3)OCO4)CC2)C[C@@H]1NC(=O)CNC(=O)c1cccc(C(F)(F)F)c1 (stereo partly drawn) | 0.97 | 0.88
COc1ccccc1C(=O)Nc1cc2c(cc1N1CCCCC1)n(C)c(=O)n2C | 0.765 | 0.829
CC(C)(C)NC[C@H](O)COc1nsnc1N1CCOCC1 | 0.98 and 0.912 and 0.922 | 0.883 and 0.832 and 0.805
C[C@]12CCC(=O)C=C1CC[C@@H]1[C@@H]2[C@@H](O)C[C@@]2(C)[C@H]1CC[C@]2(O)C(=O)COC(=O)CCC(=O)O | 0.717 | 1.02
COc1cccc(NC(=O)/C=C/c2ccc(Cl)cc2)c1 | 1.39 | 1
Cc1cc(OCCN2CCOCC2)nn1-c1ccc2ccccc2c1 | 1.02 | 0.944
Oc1ccccc1O | 0.845 | 0.928
COc1cc(OC)c2c(=O)[nH]c(-c3cc(C)c(OCCO)c(C)c3)nc2c1 | 0.837 | 0.884
CO/N=C(\C(=O)N[C@@H]1C(=O)N2C(C(=O)O)=C(CSc3nc(=O)c(O)nn3C)CS[C@H]12)c1csc(N)n1 | 0.972 and 1.09 | 0.945 and 1.1

SMILES | PER2::LUC luminescence (time after treatment 24 h) | PER2::LUC luminescence (time after treatment 30 h)
C[C@@]12CCc3occc3[C@H]1CC[C@@]13C[C@@H](CC[C@H]12)[C@@](O)(CO)C3 | 1.06 | 0.733
NCCOc1cc(C(=O)Nc2cc(OCCN)c3ccccc3n2)nc(C(=O)Nc2cc(OCCN)c3ccccc3n2)c1 | 0.954 | 0.971
O=C(O)CS | 0.991 | 0.939
CCCCOC(=O)NS(=O)(=O)c1sc(CC(C)C)cc1-c1ccc(Cn2c(CC)nc3c(C)cc(C)nc32)cc1 | 0.943 | 0.692
O=C(c1cccc(Cl)c1F)N1CCN(Cc2cccc(Nc3nccs3)n2)CC1 | 0.793 | 0.764
COc1ccc(CCN(C)CCCC(C#N)(c2cc(OC)c(OC)c(OC)c2)C(C)C)cc1OC (racemic) | 0.987 | 0.783
CC(C)[C@H]1C(=O)N[C@@H](CCCNC(=N)N)C(=O)NCC(=O)N[C@@H](CC(=O)O)C(=O)N[C@H](Cc2ccccc2)C(=O)N1C | 0.772 | 0.692
FC(F)(F)c1ccccc1-n1ccnc1 | 0.975 | 0.907
NCC(O)c1ccc(O)c(O)c1 (racemic) | 1.04 | 1.12
COc1cc(-c2coc3cc(O)c(OC)c(O)c3c2=O)cc(O)c1OC | 1.37 | 1.39
CCOC(=O)OC(C)OC(=O)[C@@H]1N2C(=O)[C@@H](NC(=O)[C@H](N)c3ccccc3)[C@H]2SC1(C)C (stereo partly drawn) | 1.02 | 0.972
NC(CCCP(=O)(O)O)C(=O)O (racemic) | 1.03 and 0.907 | 1.02 and 0.974
CN1C(=O)C[C@H](C(=O)O)[C@H]1c1cccnc1 | 1.08 | 1.07
CCOC(=O)[C@H](CCc1ccccc1)N[C@H]1CCc2ccccc2N(CC(=O)O)C1=O | 0.42 | 0.758
O=C(NC[C@@H]1CN(c2ccc(N3CCOCC3=O)cc2)C(=O)O1)c1ccc(Cl)s1 | 0.948 | 0.975
O=C(Nc1c[nH]nc1-c1nc2ccc(CN3CCOCC3)cc2[nH]1)NC1CC1 | 0.571 | 0.345
Cn1cc(-c2ccc(F)c(C(F)(F)F)c2)nc1C1CCN(c2ncnc3[nH]ncc23)CC1 | 0.925 | 0.975
CN(Cc1ccccc1)c1ccc2cc(C(=O)O)c(=O)oc2c1 | 1.06 | 0.948
CCNC(=O)N1CCN(CCCC(c2ccc(F)cc2)c2ccc(F)cc2)CC1 | 0.862 and 0.747 | 0.758 and 0.661
Fc1ccc(C(OCCCc2cnc[nH]2)c2ccc(F)cc2)cc1 | 0.983 | 0.796
COC1=C(OC)C(=O)C(CCCCCCCCCCO)=C(C)C1=O | 1.04 | 0.777
C=CCN1CCc2cc(O)c(O)cc2C(c2ccccc2)C1 (racemic) | 1.04 | 1.07
O=C1CCC(c2ccc(-n3ccnc3)cc2)=NN1 | 0.982 | 0.963
COc1ccc(C(OCCN2CCC[C@H](C(=O)O)C2)(c2ccc(OC)cc2)c2ccc(OC)cc2)cc1 | 0.855 | 1.04

From the supplement of paper PMC9334596
